The list shows a part of the results. Most values come without repeats; read them as rough.
The compounds below were run on G361 (assay: cell count relative to DMSO control; melanoma cells; higher = more viable cells). Details: library dose: standard library concentration; 72 h.
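Further: cells treated in 1,536-well plates, then fixed and DAPI-stained, with nuclei counted from automated high-throughput microscope images.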

Compound	cell count
O=C(Nc1cc(C(F)(F)F)cc(C(F)(F)F)c1)c1cc(Cl)ccc1O + Nc1ncn([C@H]2C[C@H](O)[C@@H](CO)O2)c(=O)n1 [decitabine] (first compound 0.08 µM, partner dose 0.5 µM)	91.3%
O=C(O)[C@@H]1[O][Sb](=[O])([O][Sb]2(=[O])[O][C@H]([C@H](O)CO)[C@H](O)[C@H](C(=O)O)[O]2)[O][C@H]([C@H](O)CO)[C@@H]1O (stereo partly specified) [stibogluconate] + N#Cc1c(O)c2c(-c3ccc(-c4ccccc4O)cc3)csc2[nH]c1=O [A769662] (first compound 10 µM, partner dose 10 µM)	108%
O=C(Nc1ccccc1)c1cc([N+](=O)[O-])ccc1Cl + Cc1cc([N+](=O)[O-])ccc1NS(=O)(=O)c1cc(Cl)ccc1Cl [FH535] (first compound 10 µM, partner dose 5 µM)	55.8%
O=C(Nc1cc(C(F)(F)F)cc(C(F)(F)F)c1)c1cc(Cl)ccc1O + Nc1ccn([C@@H]2O[C@H](CO)[C@@H](O)C2(F)F)c(=O)n1 [gemcitabine] (first compound 0.08 µM, partner dose 0.002 µM)	53.7%
O=C(Nc1cc(C(F)(F)F)cc(C(F)(F)F)c1)c1cc(Cl)ccc1O + C=CCn1c(=O)c2cnc(Nc3ccc(N4CCN(C)CC4)cc3)nc2n1-c1cccc(C(C)(C)O)n1 [MK1775] (first compound 0.08 µM, partner dose 0.1 µM)	83.9%
O=C(Nc1cc(C(F)(F)F)cc(C(F)(F)F)c1)c1cc(Cl)ccc1O + CCCCCCCCCCCC1=C(O)C(=O)C=C(O)C1=O [Embelin] (first compound 0.08 µM, partner dose 6 µM)	58.4%
Cn1nnc2c(C(N)=O)ncn2c1=O [temozolomide] + CCN(CC)CCCCNc1ncc2cc(-c3cc(OC)cc(OC)c3)c(NC(=O)NC(C)(C)C)nc2n1 [PD173074] (first compound 10 µM, partner dose 0.5 µM)	105%
O=C(O)[C@@H]1[O][Sb](=[O])([O][Sb]2(=[O])[O][C@H]([C@H](O)CO)[C@H](O)[C@H](C(=O)O)[O]2)[O][C@H]([C@H](O)CO)[C@@H]1O (stereo partly specified) [stibogluconate] + Nc1ncn([C@H]2C[C@H](O)[C@@H](CO)O2)c(=O)n1 [decitabine] (first compound 10 µM, partner dose 0.5 µM)	87.6%
O=C(O)c1ccc2c(c1)nc(Nc1cccc(Cl)c1)c1ccncc12 + C=CCn1c(=O)c2cnc(Nc3ccc(N4CCN(C)CC4)cc3)nc2n1-c1cccc(C(C)(C)O)n1 [MK1775] (first compound 2 µM, partner dose 0.1 µM)	57%
O=C(O)c1ccc2c(c1)nc(Nc1cccc(Cl)c1)c1ccncc12 + COc1cc(N2CCC(N3CCN(C)CC3)CC2)ccc1Nc1ncc(Cl)c(Nc2ccccc2S(=O)(=O)C(C)C)n1 [NVP-TAE684] (first compound 2 µM, partner dose 0.4 µM)	61.4%
O=C(O)c1ccc2c(c1)nc(Nc1cccc(Cl)c1)c1ccncc12 + Cc1cc([N+](=O)[O-])ccc1NS(=O)(=O)c1cc(Cl)ccc1Cl [FH535] (first compound 2 µM, partner dose 5 µM)	43.3%
O=C(Nc1cc(C(F)(F)F)cc(C(F)(F)F)c1)c1cc(Cl)ccc1O + Cn1c(Nc2ccc(C(F)(F)F)cc2)nc2cc(Oc3ccnc(-c4ncc(C(F)(F)F)[nH]4)c3)ccc21 [CHIR265] (first compound 0.08 µM, partner dose 0.4 µM)	28%
O=C(O)[C@@H]1[O][Sb](=[O])([O][Sb]2(=[O])[O][C@H]([C@H](O)CO)[C@H](O)[C@H](C(=O)O)[O]2)[O][C@H]([C@H](O)CO)[C@@H]1O (stereo partly specified) [stibogluconate] + COc1cc2ncnc(Nc3ccc(Oc4ccccc4)cc3)c2cc1OC [SrcI1] (first compound 10 µM, partner dose 10 µM)	47.6%
O=C(O)c1ccc2c(c1)nc(Nc1cccc(Cl)c1)c1ccncc12 + C#Cc1cccc(Nc2ncnc3cc(OCCOC)c(OCCOC)cc23)c1 [erlotinib] (first compound 2 µM, partner dose 4 µM)	37.8%
Cc1cc(N2CCOCC2)cc2[nH]c(-c3c(NC[C@@H](O)c4cccc(Cl)c4)cc[nH]c3=O)nc12 + Oc1cc(-c2nc(-c3ccccc3)[nH]c2-c2ccncc2)ccc1Cl [L779450] (first compound 1 µM, partner dose 1 µM)	54.3%
O=C(O)[C@@H]1[O][Sb](=[O])([O][Sb]2(=[O])[O][C@H]([C@H](O)CO)[C@H](O)[C@H](C(=O)O)[O]2)[O][C@H]([C@H](O)CO)[C@@H]1O (stereo partly specified) [stibogluconate] + O=S(=O)(c1ccccc1)N(CC(F)(F)F)c1ccc(C(O)(C(F)(F)F)C(F)(F)F)cc1 [T0901317] (first compound 10 µM, partner dose 7 µM)	92.1%

Compound	cell count
O=C(O)[C@@H]1[O][Sb](=[O])([O][Sb]2(=[O])[O][C@H]([C@H](O)CO)[C@H](O)[C@H](C(=O)O)[O]2)[O][C@H]([C@H](O)CO)[C@@H]1O (stereo partly specified) [stibogluconate] + Cn1cncc1[C@@](N)(c1ccc(Cl)cc1)c1ccc2c(c1)c(-c1cccc(Cl)c1)cc(=O)n2C [tipifarnib] (first compound 10 µM, partner dose 0.05 µM)	92.9%
O=C(Nc1cc(C(F)(F)F)cc(C(F)(F)F)c1)c1cc(Cl)ccc1O + COc1ccc(COc2ccc(Cc3cnc(N)nc3N)cc2OC)cc1 [GW2580] (first compound 0.08 µM, partner dose 5 µM)	79.9%
O=C(Nc1cc(C(F)(F)F)cc(C(F)(F)F)c1)c1cc(Cl)ccc1O + Cc1cc([N+](=O)[O-])ccc1NS(=O)(=O)c1cc(Cl)ccc1Cl [FH535] (first compound 0.08 µM, partner dose 5 µM)	48.5%
O=C(Nc1cc(C(F)(F)F)cc(C(F)(F)F)c1)c1cc(Cl)ccc1O + Cn1cc(/C=C2\C(=O)Nc3cccnc32)c2ccccc21 [GW441756] (first compound 0.08 µM, partner dose 2 µM)	108%
O=C(O)c1ccc2c(c1)nc(Nc1cccc(Cl)c1)c1ccncc12 + CCc1ccc(CCOc2ccc(CC3SC(=O)NC3=O)cc2)nc1 [pioglitazone] (first compound 2 µM, partner dose 10 µM)	55.9%
Cc1cc(N2CCOCC2)cc2[nH]c(-c3c(NC[C@@H](O)c4cccc(Cl)c4)cc[nH]c3=O)nc12 + CC(C)CCN1c2nc(Nc3cc(F)c(O)c(F)c3)ncc2N(C)C(=O)C1C [BID1870] (first compound 1 µM, partner dose 1 µM)	59.5%
O=C(Nc1ccccc1)c1cc([N+](=O)[O-])ccc1Cl + COc1ccc(-c2ccc3c(N4CCOCC4)nc(N4C[C@@H](C)O[C@@H](C)C4)nc3n2)cc1CO [KU0063794] (first compound 10 µM, partner dose 0.1 µM)	70%
O=C(O)c1ccc2c(c1)nc(Nc1cccc(Cl)c1)c1ccncc12 + O=c1cc(-c2cccc3c2Sc2ccccc2S3)oc(N2CCOCC2)c1 [KU55933] (first compound 2 µM, partner dose 5 µM)	51.2%
O=C(O)c1ccc2c(c1)nc(Nc1cccc(Cl)c1)c1ccncc12 + c1cc(-c2cnn3cc(-c4ccc(OCCN5CCCCC5)cc4)cnc23)ccn1 [Dorsomorphin] (first compound 2 µM, partner dose 2 µM)	49.4%
Cn1nnc2c(C(N)=O)ncn2c1=O [temozolomide] + Cc1cc([N+](=O)[O-])ccc1NS(=O)(=O)c1cc(Cl)ccc1Cl [FH535] (first compound 10 µM, partner dose 5 µM)	50.5%
O=C(Nc1cc(C(F)(F)F)cc(C(F)(F)F)c1)c1cc(Cl)ccc1O + COc1ccc2c(c1)CCC1C2CCC2(C)C(NCCCCCCN3C(=O)C=CC3=O)CCC12 [U73122] (first compound 0.08 µM, partner dose 2 µM)	90.2%
Cc1cc(N2CCOCC2)cc2[nH]c(-c3c(NC[C@@H](O)c4cccc(Cl)c4)cc[nH]c3=O)nc12 + Oc1nc(-c2ccc(C(F)(F)F)cc2)nc2c1CSCC2 [XAV939] (first compound 1 µM, partner dose 10 µM)	78.8%
O=C(Nc1cc(C(F)(F)F)cc(C(F)(F)F)c1)c1cc(Cl)ccc1O + CC(=O)O[C@@]12CO[C@@H]1C[C@H](O)[C@@]1(C)C(=O)[C@H](O)C3=C(C)[C@@H](OC(=O)[C@H](O)[C@@H](NC(=O)OC(C)(C)C)c4ccccc4)C[C@@](O)([C@@H](OC(=O)c4ccccc4)[C@H]21)C3(C)C [Docetaxel] (first compound 0.08 µM, partner dose 0.0005 µM)	15.5%
O=C(Nc1ccccc1)c1cc([N+](=O)[O-])ccc1Cl + O=S(=O)(c1ccccc1)N(CC(F)(F)F)c1ccc(C(O)(C(F)(F)F)C(F)(F)F)cc1 [T0901317] (first compound 10 µM, partner dose 7 µM)	68.2%
O=C(Nc1cc(C(F)(F)F)cc(C(F)(F)F)c1)c1cc(Cl)ccc1O + CCc1ccc(CCOc2ccc(CC3SC(=O)NC3=O)cc2)nc1 [pioglitazone] (first compound 0.08 µM, partner dose 10 µM)	115%

Reference: the supplement of paper PMC4604168 (melanoma cell lines)
